Measured values from the supplement of paper PMC7826260.
Some of the results follow. Viral Rep nickase domains cut single-stranded DNA in vitro at 3 µM enzyme and 37 °C for 1 h; the strands have 90 letters, of which the middle is given. A value is the log2 ratio of uncut reads to the pool without enzyme; the lower, the more was cut; hits are not called. Because reads are shares of a total, they shift together; where an enzyme cuts many sequences, the uncut ones exceed 0.

Experiments:
Assay in all cases: uncleaved DNA left, log2 of reads against the no-enzyme library (log2 ratio); higher = less cleavage (more negative = more Rep cleavage of the k-mer); sequences stand for … in CTCGTCCG…ACCGGAGA
[1] = system: T1, Rep nickase domain of Muscovy duck circovirus
T1 sequence (residues 1-111 of Rep, tag left off): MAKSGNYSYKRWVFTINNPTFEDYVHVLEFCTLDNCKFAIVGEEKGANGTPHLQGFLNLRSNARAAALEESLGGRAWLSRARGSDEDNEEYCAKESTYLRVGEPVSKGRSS
Protocol: (§1)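 A pool of 90-nt single-stranded DNAs with seven random bases just before the constant AC of the nick site (name = the seven bases) was cut by 3 µM recombinant His6-SUMO-tagged Rep nickase domain (300 nM DNA, 50 mM HEPES pH 8.0, 50 mM NaCl, 1 mM MnCl2, 1 h, 37 °C, three replicates). Uncut DNA was amplified and sequenced.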

[2] = system: T2, Rep nickase domain of banana bunchy top virus
T2 sequence (residues 1-94 of Rep, tag left off): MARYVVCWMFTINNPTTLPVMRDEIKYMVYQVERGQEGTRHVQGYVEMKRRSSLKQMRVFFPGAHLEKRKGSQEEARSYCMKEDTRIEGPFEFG
Protocol: as §1

[3] = system: T3, Rep nickase domain of cabbage leaf curl virus
T3 sequence (residues 1-116 of Rep, tag left off): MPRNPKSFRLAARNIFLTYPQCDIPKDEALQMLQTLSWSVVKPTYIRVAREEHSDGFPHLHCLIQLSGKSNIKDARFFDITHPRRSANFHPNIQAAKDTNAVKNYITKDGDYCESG
Protocol: as §1

[4] = system: T4, Rep nickase domain of chickpea chlorotic dwarf virus
T4 sequence (residues 1-124 of Rep, tag left off): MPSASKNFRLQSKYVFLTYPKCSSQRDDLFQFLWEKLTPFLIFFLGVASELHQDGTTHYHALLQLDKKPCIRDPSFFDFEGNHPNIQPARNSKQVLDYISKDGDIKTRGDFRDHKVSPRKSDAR
Protocol: as §1

[5] = system: T5, Rep nickase domain of faba bean necrotic yellows virus
T5 sequence (residues 1-98 of Rep, tag left off): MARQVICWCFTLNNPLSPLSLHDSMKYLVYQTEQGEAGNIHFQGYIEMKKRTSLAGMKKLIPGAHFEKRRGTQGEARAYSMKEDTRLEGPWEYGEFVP
Protocol: as §1

[6] = system: T6, Rep nickase domain of maize striate mosaic virus
T6 sequence (residues 1-117 of Rep, tag left off): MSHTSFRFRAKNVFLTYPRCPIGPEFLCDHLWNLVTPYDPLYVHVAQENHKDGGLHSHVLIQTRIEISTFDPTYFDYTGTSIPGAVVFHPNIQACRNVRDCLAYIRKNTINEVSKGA
Protocol: as §1

[7] = system: T7, Rep nickase domain of porcine circovirus 2
T7 sequence (residues 2-116 of Rep, tag left off): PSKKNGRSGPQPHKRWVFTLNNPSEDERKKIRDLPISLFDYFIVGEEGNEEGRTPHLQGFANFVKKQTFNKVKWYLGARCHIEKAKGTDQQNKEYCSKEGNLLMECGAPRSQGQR
Protocol: as §1

[8] = system: T8, Rep nickase domain of tomato golden mosaic virus
T8 sequence (residues 1-124 of Rep, tag left off): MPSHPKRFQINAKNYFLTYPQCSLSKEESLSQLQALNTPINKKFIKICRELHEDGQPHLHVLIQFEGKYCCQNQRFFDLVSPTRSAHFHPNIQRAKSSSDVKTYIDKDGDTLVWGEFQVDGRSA
Protocol: as §1

[9] = system: T9, Rep nickase domain of tomato yellow leaf curl virus
T9 sequence (residues 1-136 of Rep, tag left off): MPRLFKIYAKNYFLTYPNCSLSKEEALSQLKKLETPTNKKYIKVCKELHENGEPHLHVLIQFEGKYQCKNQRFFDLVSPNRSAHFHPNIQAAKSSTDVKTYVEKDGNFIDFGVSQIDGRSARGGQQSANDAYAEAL
Protocol: as §1

[10] = system: T10, Rep nickase domain of wheat dwarf virus
T10 sequence (residues 1-137 of Rep, tag left off): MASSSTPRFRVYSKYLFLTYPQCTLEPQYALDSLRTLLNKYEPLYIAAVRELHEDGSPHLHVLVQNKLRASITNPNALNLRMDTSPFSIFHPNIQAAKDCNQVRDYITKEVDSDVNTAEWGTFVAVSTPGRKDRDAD
Protocol: as §1

Row | Sequence | uncleaved DNA left (log2) [1] | uncleaved DNA left (log2) [2] | uncleaved DNA left (log2) [3] | uncleaved DNA left (log2) [4] | uncleaved DNA left (log2) [5] | uncleaved DNA left (log2) [6] | uncleaved DNA left (log2) [7] | uncleaved DNA left (log2) [8] | uncleaved DNA left (log2) [9] | uncleaved DNA left (log2) [10]
1 | AACCCGT | 0.0196 | 0.0697 | 0.245 | -0.246 | 0.144 | -0.314 | -0.0627 | -0.00201 | 0.034 | -0.0387
2 | GTAAACG | -0.0351 | 0.0421 | -0.662 | -0.54 | -0.0219 | -0.767 | 0.111 | -0.0243 | -0.0116 | -0.103
3 | CCATTGT | -0.158 | -0.103 | -0.747 | -0.345 | -0.00978 | -0.963 | -0.21 | -0.351 | 0.0688 | -0.193
4 | ATGTTAC | -2.66 | -0.119 | -1.51 | -2.6 | -0.0742 | -1.31 | -2.43 | -0.542 | -0.0221 | -0.422
5 | TCTACAA | 0.0196 | 0.116 | 0.0376 | -1.37 | 0.0377 | -0.127 | -0.0342 | 0.0187 | 0.126 | 0.0774
6 | TGCTTTG | 0.0397 | 0.00383 | -0.194 | -0.339 | 0.0515 | -0.746 | 0.0162 | 0.121 | 0.142 | 0.0981
7 | CTCTTAC | -0.911 | -0.136 | -0.336 | -2.02 | -0.0221 | -0.792 | -1.58 | -0.0885 | -0.0778 | -0.14
8 | AGGAAGT | 0.0799 | 0.0242 | 0.313 | 0.971 | -0.0483 | 0.822 | 0.11 | 0.0826 | 0.0125 | 0.125
9 | CTTTGCC | -0.127 | -0.133 | -0.974 | -0.921 | -0.109 | -1.29 | -0.771 | -0.168 | 0.0858 | -0.166
10 | AGGCTTT | 0.0293 | 0.0878 | 0.372 | -0.448 | 0.117 | 0.926 | -0.0535 | 0.106 | 0.179 | 0.157
11 | CGAATAT | -0.107 | -0.0591 | -0.0702 | -0.361 | -0.0457 | -0.272 | 0.018 | -0.139 | 0.0521 | -0.0975
12 | GTCTCGC | 0.111 | 0.0815 | 0.201 | 0.732 | -0.032 | 1.61 | 0.21 | 0.203 | 0.0998 | 0.154
13 | GTTGAGA | 0.00127 | 0.0134 | 0.22 | 0.732 | 0.115 | 0.673 | 0.0888 | 0.0733 | 0.0456 | 0.0491
14 | TCGGCGA | -0.204 | -0.199 | -0.702 | -0.422 | 0.0237 | -0.793 | 0.00936 | -0.0597 | -0.052 | -0.281
15 | CTTGTAT | -0.00943 | -0.156 | -0.155 | -0.669 | 0.00943 | -0.557 | -0.254 | -0.0784 | 0.0252 | 0.054
16 | TGGTCAC | 0.0438 | 0.0646 | 0.464 | 1.18 | -0.0117 | 1.79 | 0.0752 | 0.131 | 0.0668 | 0.14
17 | CGAGTTT | 0.00151 | -0.0443 | -0.068 | -1.35 | -0.0783 | -0.129 | -0.257 | -0.0282 | 0.0481 | -0.106
18 | CTTGTAC | -0.0402 | -0.0667 | -0.0213 | -0.981 | 0.124 | -1.01 | -0.0357 | -0.0516 | 0.0407 | 0.0789
19 | CTGCCTC | -0.195 | -0.167 | 0.0777 | 0.307 | -0.0291 | 0.781 | -0.102 | -0.106 | -0.0945 | -0.0148
20 | GCGCCGA | 0.00138 | 0.00799 | 0.00927 | 0.146 | 0.0565 | -0.154 | 0.0678 | 0.0412 | 0.0618 | 0.0207
21 | TTCCTCT | -0.0147 | -0.0422 | -0.122 | -2.07 | -0.0799 | -0.454 | -0.322 | -0.141 | -0.0526 | 0.0174
22 | TAACAAT | -0.144 | 0.0525 | -3.29 | -3.03 | 0.0929 | -0.735 | -0.311 | -0.284 | 0.135 | -1.49
23 | GATTATA | -0.667 | -0.205 | 0.298 | -1.08 | 0.00974 | 1.18 | -0.671 | 0.0965 | 0.0946 | 0.098
24 | CCGCCTA | -0.183 | -0.102 | -0.084 | -0.969 | -0.106 | -0.457 | -0.158 | 0.0201 | -0.16 | -0.0783
25 | GCACCGA | -0.0693 | -0.0396 | -0.102 | 0.117 | -0.111 | -0.459 | 0.0997 | -0.0586 | 0.00726 | 0.0885
26 | GTACTCG | -0.0504 | 0.0135 | -0.568 | -0.817 | -0.0426 | -0.839 | 0.0361 | -0.0235 | 0.0605 | -0.0353
27 | ATACGAG | -0.0453 | 0.0468 | -0.148 | 0.275 | 0.0548 | -0.781 | 0.0266 | -0.03 | -0.0893 | -0.0647
28 | CCTATAG | 0.029 | 0.0283 | -0.767 | -0.453 | -0.0245 | -1.1 | 0.118 | 0.107 | -0.00574 | -0.0647
29 | GAGCTCG | 0.00544 | -0.00814 | -0.435 | -0.205 | 0.0668 | -0.749 | 0.0909 | 0.0429 | 0.0283 | -0.0163
30 | GCAACGT | -0.0656 | -0.0934 | 0.0256 | 0.162 | -0.0507 | -0.327 | 0.112 | -0.0529 | -0.0301 | 0.0277
